# The supplement of paper PMC8728848
# The list shows a part of the results.
# B1: MMR (Homo sapiens), P22897 (protein)
# chain: MRLPLLLVFASVIPGAVLLLDTRQFLIYNEDHKRCVDAVSPSAVQTAACNQDAESQKFRWVSESQIMSVAFKLCLGVPSKTDWVAITLYACDSKSEFQKWECKNDTLLGIKGEDLFFNYGNRQEKNIMLYKGSGLWSRWKIYGTTDNLCSRGYEAMYTLLGNANGATCAFPFKFENKWYADCTSAGRSDGWLWCGTTTDYDTDKLFGYCPLKFEGSESLWNKDPLTSVSYQINSKSALTWHQARKSCQQQNAELLSITEIHEQTYLTGLTSSLTSGLWIGLNSLSFNSGWQWSDRSPFRYLNWLPGSPSAEPGKSCVSLNPGKNAKWENLECVQKLGYICKKGNTTLNSFVIPSESDVPTHCPSQWWPYAGHCYKIHRDEKKIQRDALTTCRKEGGDLTSIHTIEELDFIISQLGYEPNDELWIGLNDIKIQMYFEWSDGTPVTFTKWLRGEPSHENNRQEDCVVMKGKDGYWADRGCEWPLGYICKMKSRSQGPEIVEVEKGCRKGWKKHHFYCYMIGHTLSTFAEANQTCNNENAYLTTIEDRYEQAFLTSFVGLRPEKYFWTGLSDIQTKGTFQWTIEEEVRFTHWNSDMPGRKPGCVAMRTGIAGGLWDVLKCDEKAKFVCKHWAEGVTHPPKPTTTPEPKCPEDWGASSRTSLCFKLYAKGKHEKKTWFESRDFCRALGGDLASINNKEEQQTIWRLITASGSYHKLFWLGLTYGSPSEGFTWSDGSPVSYENWAYGEPNNYQNVEYCGELKGDPTMSWNDINCEHLNNWICQIQKGQTPKPEPTPAPQDNPPVTEDGWVIYKDYQYYFSKEKETMDNARAFCKRNFGDLVSIQSESEKKFLWKYVNRNDAQSAYFIGLLISLDKKFAWMDGSKVDYVSWATGEPNFANEDENCVTMYSNSGFWNDINCGYPNAFICQRHNSSINATTVMPTMPSVPSGCKEGWNFYSNKCFKIFGFMEEERKNWQEARKACIGFGGNLVSIQNEKEQAFLTYHMKDSTFSAWTGLNDVNSEHTFLWTDGRGVHYTNWGKGYPGGRRSSLSYEDADCVVIIGGASNEAGKWMDDTCDSKRGYICQTRSDPSLTNPPATIQTDGFVKYGKSSYSLMRQKFQWHEAETYCKLHNSLIASILDPYSNAFAWLQMETSNERVWIALNSNLTDNQYTWTDKWRVRYTNWAADEPKLKSACVYLDLDGYWKTAHCNESFYFLCKRSDEIPATEPPQLPGRCPESDHTAWIPFHGHCYYIESSYTRNWGQASLECLRMGSSLVSIESAAESSFLSYRVEPLKSKTNFWIGLFRNVEGTWLWINNSPVSFVNWNTGDPSGERNDCVALHASSGFWSNIHCSSYKGYICKRPKIIDAKPTHELLTTKADTRKMDPSKPSSNVAGVVIIVILLILTGAGLAAYFFYKKRRVHLPQEGAFENTLYFNSQSSPGTSDMKDLVGNIEQNEHSVI
# What was measured:
# Assay in all cases: glycan array binding signal (z-score within array); higher = stronger binding
# Conditions in all cases: glycan notation: IUPAC condensed, linker removed
# Gal4S6S(b1-4)GlcNAc = molecular target: Gal4S6S(b1-4)GlcNAc
# How it was run: (§1)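 The Consortium for Functional Glycomics database supplied 3228 glycan arrays, of which those lacking an available protein sequence were dropped. The binding signal, a within-array Z-score, was averaged across arrays of the same protein sequence and across linkers. Negative scores can be read as non-binding.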
# Gal6S(b1-4)Glc = molecular target: Gal6S(b1-4)Glc
# How it was run: as §1
# Gal6S(b1-4)Glc6S = molecular target: Gal6S(b1-4)Glc6S
# How it was run: as §1
# Gal6S(b1-4)GlcNAc = molecular target: Gal6S(b1-4)GlcNAc
# How it was run: as §1
# GalNAc(a1-3)Gal = molecular target: GalNAc(a1-3)Gal
# How it was run: as §1
# GalNAc(a1-3)GalNAc = molecular target: GalNAc(a1-3)GalNAc
# How it was run: as §1
# [1] = molecular target: GalNAc(b1-3)Gal(a1-4)Gal(b1-4)GlcNAc
# How it was run: as §1
# GalNAc(b1-3)GalNAc = molecular target: GalNAc(b1-3)GalNAc
# How it was run: as §1
# GalNAc(b1-4)GlcNAc = molecular target: GalNAc(b1-4)GlcNAc
# How it was run: as §1
# Glc(a1-4)Glc = molecular target: Glc(a1-4)Glc
# How it was run: as §1
# Glc(a1-6)Glc(a1-6)Glc = molecular target: Glc(a1-6)Glc(a1-6)Glc
# How it was run: as §1
# Glc(b1-4)Glc = molecular target: Glc(b1-4)Glc
# How it was run: as §1
# Glc(b1-6)Glc = molecular target: Glc(b1-6)Glc
# How it was run: as §1
# GlcA(b1-3)Gal = molecular target: GlcA(b1-3)Gal
# How it was run: as §1
# GlcA(b1-6)Gal = molecular target: GlcA(b1-6)Gal
# How it was run: as §1
# [2] = molecular target: GlcNAc(a1-3)Gal(b1-4)GlcNAc
# How it was run: as §1
# [3] = molecular target: GlcNAc(a1-6)Gal(b1-4)GlcNAc
# How it was run: as §1
# [4] = molecular target: GlcNAc(b1-2)Gal(b1-3)GalNAc
# How it was run: as §1
# [5] = molecular target: GlcNAc(b1-2)Man(a1-3)[GlcNAc(b1-2)Man(a1-6)]Man(b1-4)GlcNAc(b1-4)GlcNAc
# How it was run: as §1
# GlcNAc(b1-3)Gal = molecular target: GlcNAc(b1-3)Gal
# How it was run: as §1
# [6] = molecular target: GlcNAc(b1-3)Gal(b1-3)GalNAc
# How it was run: as §1
# GlcNAc(b1-3)Gal(b1-4)Glc = molecular target: GlcNAc(b1-3)Gal(b1-4)Glc
# How it was run: as §1
# [7] = molecular target: GlcNAc(b1-3)Gal(b1-4)GlcNAc
# How it was run: as §1
# [8] = molecular target: GlcNAc(b1-3)Gal(b1-4)GlcNAc(b1-3)Gal(b1-4)GlcNAc
# How it was run: as §1
# GlcNAc(b1-3)GalNAc = molecular target: GlcNAc(b1-3)GalNAc
# How it was run: as §1
# [9] = molecular target: GlcNAc(b1-3)[GlcNAc(b1-6)]Gal(b1-4)GlcNAc
# How it was run: as §1
# [10] = molecular target: GlcNAc(b1-3)[GlcNAc(b1-6)]GalNAc
# How it was run: as §1
# [11] = molecular target: GlcNAc(b1-3)[GlcNAc(b1-6)]GlcNAc(b1-4)GlcNAc
# How it was run: as §1
# [12] = molecular target: GlcNAc(b1-4)Gal(b1-4)GlcNAc
# How it was run: as §1
# [13] = molecular target: GlcNAc(b1-4)GlcNAc(b1-4)GlcNAc
# How it was run: as §1
binder,measurement,setting,value
B1,glycan array binding signal (z-score),Gal4S6S(b1-4)GlcNAc,-0.344
same,glycan array binding signal (z-score),Gal6S(b1-4)Glc,-0.344
same,glycan array binding signal (z-score),Gal6S(b1-4)Glc6S,-0.082
same,glycan array binding signal (z-score),Gal6S(b1-4)GlcNAc,1.55
same,glycan array binding signal (z-score),GalNAc(a1-3)Gal,-0.408
same,glycan array binding signal (z-score),GalNAc(a1-3)GalNAc,-0.392
same,glycan array binding signal (z-score),[1],-0.342
same,glycan array binding signal (z-score),GalNAc(b1-3)GalNAc,-0.413
same,glycan array binding signal (z-score),GalNAc(b1-4)GlcNAc,-0.438
same,glycan array binding signal (z-score),Glc(a1-4)Glc,-0.438
same,glycan array binding signal (z-score),Glc(a1-6)Glc(a1-6)Glc,-0.397
same,glycan array binding signal (z-score),Glc(b1-4)Glc,-0.406
same,glycan array binding signal (z-score),Glc(b1-6)Glc,-0.438
same,glycan array binding signal (z-score),GlcA(b1-3)Gal,0.253
same,glycan array binding signal (z-score),GlcA(b1-6)Gal,0.028
same,glycan array binding signal (z-score),[2],-0.44
same,glycan array binding signal (z-score),[3],-0.446
same,glycan array binding signal (z-score),[4],-0.453
same,glycan array binding signal (z-score),[5],-0.339
same,glycan array binding signal (z-score),GlcNAc(b1-3)Gal,-0.437
same,glycan array binding signal (z-score),[6],-0.432
same,glycan array binding signal (z-score),GlcNAc(b1-3)Gal(b1-4)Glc,-0.43
same,glycan array binding signal (z-score),[7],-0.421
same,glycan array binding signal (z-score),[8],-0.305
same,glycan array binding signal (z-score),GlcNAc(b1-3)GalNAc,-0.426
same,glycan array binding signal (z-score),[9],-0.457
same,glycan array binding signal (z-score),[10],-0.438
same,glycan array binding signal (z-score),[11],-0.456
same,glycan array binding signal (z-score),[12],-0.407
same,glycan array binding signal (z-score),[13],-0.45
